Molecules are shown by their SMILES. Where a name gives a salt, the structure may show the parent alone. The list shows a part of the results.

This experiment concerns Schistosoma mansoni schistosomula. Kind of experiment: phenotypic hit in primary schistosomula screen (any phenotype vs DMSO control) (binary (1 = hit, 0 = no phenotype)); higher = active (phenotype induced). Conditions: 1 µM; time (d): 7.
Take `O=C(O)[C@@H]1[C@H]2C[C@H]3c4[nH]c5ccccc5c4CCN3C[C@@H]2CC[C@@H]1O` [yohimbic acid]: the phenotypic hit is inactive: 0.

`CO/N=C(\C(=O)N[C@@H]1C(=O)N2C(C(=O)O)=C(COC(C)=O)CS[C@H]12)c1csc(N)n1` [cefotaxime sodium]: the phenotypic hit is inactive: 0.

Turning to `O=C(O)c1c2ccccc2cc2ccccc12` [anthracene-9-carboxylic acid], the phenotypic hit is inactive: 0.

For the compound `C=C1C2CCC3(C)C(c4ccoc4)OC(=O)CC13OC1CC(=O)C(C)(C)C(CC(=O)OC)C12C` (stereo not given) [angolensic acid, methyl ester], the phenotypic hit was inactive: 0.

For `COc1cccc2c1CCC1CC(=O)CC[C@]21C` (stereo not given in full) [14-methoxy-4,4-bisnor-8,11,13-podocarpatrien-3-one], the phenotypic hit was inactive: 0.

In the case of `OC[C@@H](O)[C@@H](O[C@@H]1O[C@H](CO)[C@@H](O)[C@H](O)[C@H]1O)[C@H](O)[C@@H](O)CO` [glucitol-4-gucopyanoside], the phenotypic hit was active: 1.

Turning to `COc1cc(O)c2c(=O)cc(C)oc2c1CC=C(C)C` [heteropeucenin, methyl ether], the phenotypic hit was inactive: 0.

On to `COC(=O)C[C@H]1C(C)(C)[C@@H](OC(=O)C(C)C)[C@@H]2CC3=C4CC(=O)O[C@@H](c5ccoc5)[C@]4(C)CCC3[C@@]1(C)C2=O` (stereo not given in full) [fissinolide c], for which the phenotypic hit is inactive: 0.

Turning to `CC(=O)O[C@@H]1/C=C/[C@@](C)(O)C(=O)[C@@H](C)C/C=C/[C@H]2[C@@H]3O[C@]3(C)[C@@H](C)[C@H]3[C@H](Cc4ccccc4)NC(=O)[C@@]312` [cytochalasin q], the phenotypic hit was active: 1.

Regarding `C[N+](C)(C)CC(O)CC(=O)[O-]` (stereo not given) [carnitine hydrochloride], the phenotypic hit is inactive: 0.

`CC(C)Oc1ccc2c(=O)c(-c3ccccc3)coc2c1` [ipriflavone]: the phenotypic hit is inactive: 0.

With `CC(=O)Nc1nnc(S(N)(=O)=O)s1` [Acetazolamide], the phenotypic hit was inactive: 0.

Consider `CC(=O)Nc1c(I)cc(I)c(C(=O)O)c1I` [acetriazoic acid], for which the phenotypic hit was inactive: 0.

As for `CC(=O)O[C@]1(C)CC[C@@]23C[C@H]1C(C)(C)[C@@H]2CC[C@H]3C` [cedryl acetate], the phenotypic hit is inactive: 0.

For the compound `Cc1cc2cc3c(C)cc(=O)oc3c(C)c2o1` [trioxsalen], the phenotypic hit is inactive: 0.

For `CC(=O)O[C@@H]1CC2C(C)(C)CCC[C@]2(C)C2CC[C@]3(C)C(=CC(=O)O[C@H]3c3ccoc3)[C@@]21C` (stereo not given in full) [deoxodeoxydihydrogedunin], the phenotypic hit is inactive: 0.

With `CCN(CC)CCNC(=O)c1ccc(N)cc1` [Procainamide hydrochloride], the phenotypic hit is inactive: 0.

On to `CCCCCCOc1ccccc1C(N)=O` [exalamide], for which the phenotypic hit was inactive: 0.

In the case of `COc1ccc(-c2coc3c(OC)c(OC)cc(OC)c3c2=O)cc1` [isotectorigenin trimethyl ether], the phenotypic hit was inactive: 0.

Take `O=C(Oc1cc(O)cc2c1C[C@@H](OC(=O)c1cc(O)c(O)c(O)c1)[C@@H](c1cc(O)c(O)c(O)c1)O2)c1cc(O)c(O)c(O)c1` [epigallocatechin 3,5-digallate]: the phenotypic hit is inactive: 0.

Regarding `C[C@@H]1CCC[C@H](C)N1NC(=O)c1ccc(Cl)c(S(N)(=O)=O)c1` [clopamide], the phenotypic hit is inactive: 0.

Take `CC[C@H]1OC(=O)[C@H](C)[C@@H](O[C@H]2C[C@@](C)(OC)[C@@H](O)[C@H](C)O2)[C@H](C)[C@@H](O[C@@H]2O[C@H](C)C[C@H](N(C)C)[C@H]2O)[C@](C)(O)C[C@@H](C)CN(C)[C@H](C)[C@@H](O)[C@]1(C)O` [azithromycin]: the phenotypic hit was inactive: 0.

Consider `CC(=O)c1cc(CC=C(C)C)c(O)c(CC=C(C)C)c1` [3,5-diprenyl-4-hydroxyacetophenone], for which the phenotypic hit was inactive: 0.

For `CCOC(=O)C(Cc1ccc(O)cc1)NC(C)=O` (stereo not given) [acetyl tyrosine ethyl ester], the phenotypic hit is inactive: 0.

Turning to `COc1cc2c(cc1/C=C/C(=O)c1cc(OC)c(OC)cc1OC)OCO2` [6-methoxyprosogerin b diethyl ether], the phenotypic hit was active: 1.

Regarding `COC(=O)C(O)c1ccccc1` (stereo not given) [mandelic acid, methyl ester], the phenotypic hit was inactive: 0.

In the case of `Nc1ccc(S(=O)(=O)Nc2nccs2)cc1` [sulfathiazole], the phenotypic hit was inactive: 0.

As to `O=c1c(-c2ccc3c(c2)OCO3)coc2cc(O)ccc12` [pseudobaptigenin], the phenotypic hit was inactive: 0.

Regarding `COc1cc2ccc(=O)oc2c(O)c1O` [fraxetin], the phenotypic hit was inactive: 0.

With `CC(C)[N+]1(C)[C@@H]2CC[C@H]1C[C@@H](OC(=O)C(CO)c1ccccc1)C2` (stereo not given in full) [ipratropium bromide], the phenotypic hit is inactive: 0.

With `COC(=O)C[C@H]1C(C)(C)C2(Cl)O[C@@]34CC2C(=O)[C@]1(C)C3CC[C@]1(C)C4=CC(=O)O[C@H]1c1ccoc1` (stereo partly drawn) [3-chloro-8beta-hydroxycarapin, 3,8-hemiacetal], the phenotypic hit is inactive: 0.

With `Cc1ccc(-c2cc(C(F)(F)F)nn2-c2ccc(S(N)(=O)=O)cc2)cc1` [celecoxib], the phenotypic hit is inactive: 0.

With `COc1ccc2c(=O)c(-c3ccc(O[C@@H]4O[C@H](CO)[C@@H](O)[C@H](O)[C@H]4O)cc3)coc2c1` [isoononin], the phenotypic hit is inactive: 0.

Turning to `COc1c(Cl)ccc(Cl)c1C(=O)O` [dicamba], the phenotypic hit is inactive: 0.

Consider `NC[C@H]1O[C@H](O[C@H]2[C@H](O)[C@@H](O[C@H]3O[C@H](CO)[C@@H](O)[C@H](N)[C@H]3O)[C@H](N)C[C@@H]2N)[C@H](N)C[C@@H]1O` [tobramycin], for which the phenotypic hit is inactive: 0.

With `CCN(CCCCOC(=O)c1ccc(OC)c(OC)c1)C(C)Cc1ccc(OC)cc1` (stereo not given) [mebeverine hydrochloride], the phenotypic hit was inactive: 0.

For `Cc1cc(C(C)(C)C)cc(C)c1CC1=NCCN1` [xylometazoline hydrochloride], the phenotypic hit is inactive: 0.

Consider `CC(C)C[C@@H](NC(=O)OCC1c2ccccc2-c2ccccc21)C(=O)O`, for which the phenotypic hit was inactive: 0.

As to `CCN(CC)CCOCCOC(=O)C1(c2ccccc2)CCCC1` [Carbetapentane citrate], the phenotypic hit is inactive: 0.

Turning to `Cc1cc(=O)c2c(O)c3c(cc2o1)OCC(C)CC3` (stereo not given) [dihydroptaeroxylin], the phenotypic hit was inactive: 0.

As for `CC(=O)O[C@@H]1CC(=O)[C@@]2(C)C(CC(=O)[C@]3(C)C2CC[C@@]2(C)[C@H](c4ccoc4)OC(=O)C4OC423)C1(C)C` (stereo not given in full) [1,7-dideacetoxy-1,7-dioxokhivorin], the phenotypic hit was inactive: 0.

Take `CCCCC1C(=O)N(c2ccccc2)N(c2ccc(O)cc2)C1=O` (stereo not given) [oxyphenbutazone]: the phenotypic hit was inactive: 0.

For the compound `O=C(CCBr)N1CCN(C(=O)CCBr)CC1` [pipobroman], the phenotypic hit was inactive: 0.

For `COc1cc(OC)c2ccc(=O)oc2c1` [citropten], the phenotypic hit was inactive: 0.

As for `Cc1cc(O)c2c(c1O)C(=O)c1c(O)cc(C)c(O)c1C2=O` [1,4,5,8-tetrahydroxy-2,6-dimethylanthroquinone], the phenotypic hit is inactive: 0.

`COC(=O)C[C@H]1C2(C)CC34OC5(C)O[C@@]6([C@H](OC(C)=O)C(OC(C)=O)[C@]7(C)C(/C(=C(/O)C(C)C)C(=O)O[C@H]7c7ccoc7)[C@@]6(O5)[C@H](OC(C)=O)[C@@]3(O)C2OC(=O)C(C)C)[C@]14C` (stereo not given in full) [bussein]: the phenotypic hit was inactive: 0.

For the compound `CC(=O)Nc1ccc(OC(=O)c2ccccc2O)cc1` [acetaminosalol], the phenotypic hit was inactive: 0.

As to `CCCOc1ccccc1-c1nc2[nH]nnc2c(=O)[nH]1` [Zaprinast], the phenotypic hit is inactive: 0.

With `CC(C)=CCC1=C(O)C(=O)c2ccccc2C1=O` [lapachol], the phenotypic hit was inactive: 0.

Regarding `COc1ccc(Cl)cc1C(=O)NCCc1ccc(S(=O)(=O)NC(=O)NC2CCCCC2)cc1` [Glibenclamide], the phenotypic hit is inactive: 0.

Regarding `COC(=O)c1c(C)c2c(c(C)c1OC)OC(=O)c1c(C)c(Cl)c(OC)c(Cl)c1O2` [leoidin dimethyl ether], the phenotypic hit was inactive: 0.

Consider `NCCC(=O)N[C@@H](Cc1c[nH]cn1)C(=O)O` [carnosine], for which the phenotypic hit is inactive: 0.

Regarding `Cc1cc(C)nc(NS(=O)(=O)c2ccc(N)cc2)n1` [sulfamethazine], the phenotypic hit was inactive: 0.

For `CC(C)=CCc1c2c(c3occ(-c4ccc(O)c(O)c4)c(=O)c3c1O)C=CC(C)(C)O2` [pomiferin], the phenotypic hit was inactive: 0.

As to `COc1cc(NS(=O)(=O)c2ccc(N)cc2)ncn1` [sulfamonomethoxine], the phenotypic hit was inactive: 0.

Take `CC1(C)O[C@@H]2C[C@H]3[C@@H]4C[C@H](F)C5=CC(=O)C=C[C@]5(C)[C@@]4(F)[C@@H](O)C[C@]3(C)[C@]2(C(=O)CO)O1` [fluocinolone acetonide]: the phenotypic hit is inactive: 0.

In the case of `CN(C(=O)CN(CCO)CC(=O)N(C)C(C)(C)Cc1ccccc1)C(C)(C)Cc1ccccc1` [oxethazaine], the phenotypic hit was inactive: 0.

For `c1coc(CNc2ncnc3[nH]cnc23)c1` [kinetin], the phenotypic hit is inactive: 0.

With `CC(=O)Oc1cc(-c2coc3cc(OC(C)=O)c(OC(C)=O)c(OC(C)=O)c3c2=O)cc(OC(C)=O)c1OC(C)=O` [iriginol hexaaceatate], the phenotypic hit was inactive: 0.

`O=c1oc2cc(O)ccc2s1` [thioxolone]: the phenotypic hit was inactive: 0.

As for `CN/C(=N\CCSCc1nc[nH]c1C)NC#N` [Cimetidine], the phenotypic hit was inactive: 0.

As for `N[C@@H](CSCSC[C@H](N)C(=O)O)C(=O)O` [djenkolic acid], the phenotypic hit is inactive: 0.

`O=C(O)c1cc2cc(Cc3cccnc3)ccc2o1` [furegrelate sodium]: the phenotypic hit was inactive: 0.

As for `CC(=O)O[C@@H]1C=C[C@]2(C)C(C[C@@H](OC(C)=O)[C@]3(C)C4=CC(=O)O[C@H](c5ccoc5)[C@@]4(C)CCC23)C1(C)C` (stereo not given in full) [deoxygedunol acetate], the phenotypic hit was inactive: 0.

On to `C[C@@H]1[C@H]2[C@H](O[C@@H]3O[C@H](CO)[C@@H](O)[C@H](O)[C@H]3O)OC=C(C(=O)O)[C@H]2C[C@@H]1O` [loganic acid], for which the phenotypic hit was inactive: 0.

(Values after the supplement of paper PMC2702839.)
